Measured values published in PMC4127532 (Journal of Medicinal Chemistry, 2014).

Test system: bovine parvovirus
Format: cell-based

With CCCC1(N)C2CC3CC(C2)CC1C3 (stereo not shown) [Compound 6, 2-n-Propyltricyclo[3.3.1.1^3,7]decan-2-amine] the “effect on virus growth” value was “no effect”.
